Test results taken from patent US20120141501A1 (Chugai, published 2012).

Target: T1, soluble EGFR-Fc protein
T1 construct: Captured on a plate coated with an anti-human antibody; also called soluble EGFR protein; EGFR protein
Experiment: ELISA on captured EGFR-Fc (FIG. 11a)

B1: biotinylated thioredoxin/mature human TGFα fusion protein (ligand)
chain: not shown
modifications: biotinylated (Biotin Protein Labeling Kit, Roche Diagnostics); sites not stated
notes: also called TrxTGFA; biotinylated TrxTGFA
binding result: binds
